For the assay, the target named is T1, His6-tagged T7 RNA polymerase (bacteriophage T7), P00573.
T1 chain: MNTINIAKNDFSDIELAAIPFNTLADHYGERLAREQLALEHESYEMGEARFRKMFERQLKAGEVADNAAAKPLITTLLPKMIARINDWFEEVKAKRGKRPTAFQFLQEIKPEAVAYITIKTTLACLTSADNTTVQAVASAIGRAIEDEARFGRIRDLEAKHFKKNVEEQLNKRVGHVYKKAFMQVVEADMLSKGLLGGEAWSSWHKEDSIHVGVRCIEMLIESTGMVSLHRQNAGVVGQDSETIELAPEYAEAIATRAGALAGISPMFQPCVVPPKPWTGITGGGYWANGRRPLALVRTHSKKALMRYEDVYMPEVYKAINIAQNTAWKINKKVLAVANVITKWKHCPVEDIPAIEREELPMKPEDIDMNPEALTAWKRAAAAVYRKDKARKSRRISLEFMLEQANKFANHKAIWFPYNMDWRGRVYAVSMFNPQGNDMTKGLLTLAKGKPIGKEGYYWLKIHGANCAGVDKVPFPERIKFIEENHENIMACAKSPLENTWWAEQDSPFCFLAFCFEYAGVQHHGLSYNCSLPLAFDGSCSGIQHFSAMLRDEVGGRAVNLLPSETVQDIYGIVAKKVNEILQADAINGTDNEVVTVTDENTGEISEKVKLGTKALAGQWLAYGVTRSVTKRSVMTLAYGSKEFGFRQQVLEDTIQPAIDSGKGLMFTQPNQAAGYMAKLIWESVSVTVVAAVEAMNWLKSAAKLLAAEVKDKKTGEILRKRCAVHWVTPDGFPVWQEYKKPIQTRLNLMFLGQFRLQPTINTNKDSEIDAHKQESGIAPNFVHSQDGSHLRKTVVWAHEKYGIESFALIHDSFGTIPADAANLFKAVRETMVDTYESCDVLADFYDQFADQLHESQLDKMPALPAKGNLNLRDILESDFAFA
Briefly: fluorescence correlation spectroscopy; 2 nM ECs on Cy3B-labelled 70-bp template with 0.1-0.54 µM unlabelled ECs on 452-bp template (RNAP up to 1.75 µM); buffer LS1, 25°C; diffusion time of the labelled ECs, single-species fit. The following applies: remark: other sources report otherwise.

This passage reports Kd results from PMC3388079.

As usually defined, the Kd is the free concentration of one partner at which half of the binding sites on the other are occupied at equilibrium, for simple one-to-one binding. The low end stands for higher affinity, the high end for lower affinity.

B1: His6-tagged T7 RNA polymerase, P00573 1-883 (enzyme)
chain: MNTINIAKNDFSDIELAAIPFNTLADHYGERLAREQLALEHESYEMGEARFRKMFERQLKAGEVADNAAAKPLITTLLPKMIARINDWFEEVKAKRGKRPTAFQFLQEIKPEAVAYITIKTTLACLTSADNTTVQAVASAIGRAIEDEARFGRIRDLEAKHFKKNVEEQLNKRVGHVYKKAFMQVVEADMLSKGLLGGEAWSSWHKEDSIHVGVRCIEMLIESTGMVSLHRQNAGVVGQDSETIELAPEYAEAIATRAGALAGISPMFQPCVVPPKPWTGITGGGYWANGRRPLALVRTHSKKALMRYEDVYMPEVYKAINIAQNTAWKINKKVLAVANVITKWKHCPVEDIPAIEREELPMKPEDIDMNPEALTAWKRAAAAVYRKDKARKSRRISLEFMLEQANKFANHKAIWFPYNMDWRGRVYAVSMFNPQGNDMTKGLLTLAKGKPIGKEGYYWLKIHGANCAGVDKVPFPERIKFIEENHENIMACAKSPLENTWWAEQDSPFCFLAFCFEYAGVQHHGLSYNCSLPLAFDGSCSGIQHFSAMLRDEVGGRAVNLLPSETVQDIYGIVAKKVNEILQADAINGTDNEVVTVTDENTGEISEKVKLGTKALAGQWLAYGVTRSVTKRSVMTLAYGSKEFGFRQQVLEDTIQPAIDSGKGLMFTQPNQAAGYMAKLIWESVSVTVVAAVEAMNWLKSAAKLLAAEVKDKKTGEILRKRCAVHWVTPDGFPVWQEYKKPIQTRLNLMFLGQFRLQPTINTNKDSEIDAHKQESGIAPNFVHSQDGSHLRKTVVWAHEKYGIESFALIHDSFGTIPADAANLFKAVRETMVDTYESCDVLADFYDQFADQLHESQLDKMPALPAKGNLNLRDILESDFAFA
For B1, the Kd was greater than 1000 nM.
